In all, about 150,000 compounds went through this assay and about 540 (0.36%) showed an effect of 50% or more. Some of the results follow.

What is called % Inhibition is the drop in the measured response relative to a control, in per cent.

The assay has as its system Plasmodium falciparum. Nature of the assay: Primary screen in NF54 nanoGlo assay, in single point, at 2uM, 72h; a lower Z score goes with more inhibition. As to conditions: timepoint 72 hour. Type of assay: functional, Erythrocyte.
For the compound `COc1ccc(C(=O)N2CCOCC2)cc1S(=O)(=O)N1CCCCCC1`, the “% Inhibition” value is recorded as -14% and the Z score came out at 1.29.
The like results for `O=C(Nc1ccccc1Cl)N1CC[C@H](Oc2ncccc2C(=O)N2CCOCC2)C1` were, in that order, -8% and 1.26.
Consider `COCc1cc(NCCCn2nc(C)c(Cl)c2C)ncn1`, for which the “% Inhibition” value is recorded as -6% and the Z score came to 1.07.
Turning to `CN(C(=O)[C@H]1CCCN(C2CCN(Cc3cccnc3)CC2)C1)C1CCCCCC1`, the “% Inhibition” value is -4% and the Z score is given as 0.5.
The like results for `Cc1nn(CC(=O)N2CCOCC2)c(C)c1NC(=O)c1cc2nc(-c3ccccc3)cc(C(F)(F)F)n2n1` were, in that order, 2% and -0.25.
Regarding `Cc1cc(N[C@H]2CCOC2)c2ncccc2c1`, the “% Inhibition” value is -12% and the Z score came out at 1.25.
The like results for `CCCc1cc(C(=O)N2C[C@H](OC)C[C@@H]2COc2cccnc2)no1` were, in that order, -4% and 0.84.
The like results for `COC[C@H]1CCCCN1C(=O)c1cc(COc2cccc3cccnc23)on1` were, in that order, -12% and 1.79.
On to `Cc1nc(C(C)C)sc1CNS(=O)(=O)C1CC1`, for which the “% Inhibition” value was -5% and the Z score is listed as 0.52.
For `C[C@H]1CCc2c(cnc3c(C(=O)NC4CCCCC4)cnn23)C1`, the “% Inhibition” value worked out at 10% and the Z score is reported as -1.85.
The like results for `CCn1cc(-c2ccc(Cl)cc2)cc1C(=O)NCc1ccncc1` were, in that order, -2% and 0.34.
The like results for `O=C(CCN1CCCCC1=O)N[C@@H]1CCC[C@H]1OCc1ccccc1` were, in that order, -1% and 0.18.
The like results for `CCCn1c(C(=O)NCCc2ccccn2)cc2cc(NS(=O)(=O)c3ccc(Cl)cc3)ccc21` were, in that order, -18% and 2.16.
Take `O=C1NCC2(CCN(C(=O)Nc3cnn(Cc4cccc(F)c4)c3)CC2)O1`: the “% Inhibition” value stood at 2% and the Z score was -0.44.
The like results for `CC1(C)CN(c2ccc(C(=O)N3CCCCC3)cn2)C[C@]1(C)O` were, in that order, -4% and 0.78.
For `COc1ccc(-c2cc(C(=O)N[C@H]3CCN(c4ccc(=O)n(C)n4)C3)c(C)n2C)cc1`, the “% Inhibition” value is recorded as 67% and the Z score is on record as -11.23.
The like results for `CC1CCC(NC(=O)c2cccn2Cc2noc(C3CC3)n2)CC1` (stereo unspecified) were, in that order, -10% and 1.5.
The like results for `Cc1cc(Cn2nnnc2C(C)(C)C)on1` were, in that order, 0% and -0.05.
Take `CN(Cc1ncnn1C)S(=O)(=O)c1cccs1`: the “% Inhibition” value is reported as -6% and the Z score was determined as 0.71.
The like results for `Cc1cccc(Cl)c1NC(=O)N1CCO[C@H](c2ccsc2)C1` were, in that order, -3% and 0.57.
The like results for `COc1ccc(N2CC(C(=O)N(C)C[C@H]3CCCN4CCCC[C@@H]34)CC2=O)cc1` (stereo partly specified) were, in that order, -7% and 0.9.
Take `c1cn(CCCN2CCN(Cc3ccc4c(c3)CCO4)CC2)cn1`: the “% Inhibition” value is reported as -8% and the Z score came out at 1.06.
The like results for `Cc1ccc(C(=O)N2CCC[C@H](Oc3cccnn3)C2)cc1` were, in that order, -10% and 1.13.
The like results for `Cn1nnnc1N1CC2(CCOCC2)[C@@H]2CCC[C@@H]21` were, in that order, -11% and 1.41.
For the compound `Cc1nn(C)cc1C(=O)N[C@@H](C)C1(N2CCOCC2)CCCC1`, the “% Inhibition” value is listed as -12% and the Z score was determined as 1.1.
As to `COc1ncccc1C(=O)NC[C@H](C)S(N)(=O)=O`, the “% Inhibition” value is recorded as 36% and the Z score is reported as -4.88.
The like results for `COc1ccc([C@@]2(C(=O)NCCCN3CCCC3=O)CC2(C)C)cc1` were, in that order, -11% and 1.18.
The like results for `O=C(Nc1cccc(F)c1)C1(F)C(F)(F)C(F)(F)C(F)(F)C(F)(F)C1(F)F` were, in that order, 0% and -0.05.
For `COc1cc2c(cc1OC)[C@H](c1cccc(Cl)c1)N(C(=O)C1CCCCC1)CC2`, the “% Inhibition” value was -9% and the Z score is 1.68.
As to `CC1(C)OC2COC3(COS(=O)(=O)N4CCN(c5ccccc5)CC4)OC(C)(C)OC3C2O1` (stereo unspecified), the “% Inhibition” value is on record as -1% and the Z score was determined as 0.18.
Regarding `CCn1nc(CN2CCCN(C(=O)c3ncoc3-c3cccc(C)c3)CC2)c2c1CCOC2`, the “% Inhibition” value is 9% and the Z score is listed as -1.72.
With `Cc1nc2[nH]cc(C(=O)N[C@@H](C)c3cnn(C)c3C)c(=O)n2n1`, the “% Inhibition” value is on record as -5% and the Z score came out at 0.92.
On to `O=C(Nc1ccccc1)c1ccc(S(=O)(=O)Nc2cccc(O)c2)cc1`, for which the “% Inhibition” value was -4% and the Z score worked out at 0.49.
The like results for `COc1ccc(NC(=O)CC(C)(C)CC(=O)O)cc1` were, in that order, 36% and -0.93.
The like results for `CN1CCC(Nc2cc(C(F)(F)F)nc(NC3CCN(C)C3=O)n2)C1=O` (stereo unspecified) were, in that order, -4% and 0.55.
The like results for `CCn1c(=O)c(CCC(=O)Nc2cccc(C)c2C)nc2c(C)nn(-c3ccc(C)cc3)c21` were, in that order, 36% and -1.04.
`COc1ccc(OC)c(-c2ccnc(-n3ncc(C(=O)N4CCCC[C@@H]4CCN(C)C)c3C)n2)c1`: the “% Inhibition” value is -3% and the Z score is listed as 0.39.
The like results for `O=C(Cn1ccc2ccccc21)N1CC[C@H](c2ncon2)C1` were, in that order, -11% and 1.92.
The like results for `C#CCCC1(CCC(=O)N[C@H]2CC3(CCCC3)Oc3ccccc32)N=N1` were, in that order, -17% and 2.1.
The like results for `O=C(N[C@@H](N1CCCCC1)C(Cl)(Cl)Cl)c1ccc(Cl)cc1` were, in that order, 32% and -4.14.
Take `CCc1ccc(-n2c(=O)c3c(n2CC(=O)Nc2ccc4c(c2)OCCO4)Oc2ccc(Cl)cc2C3)cc1`: the “% Inhibition” value is on record as -16% and the Z score is listed as 1.63.
As to `CON1C(=O)C(=O)N(OC)C2CCCCCC21` (stereo unspecified), the “% Inhibition” value is listed as 8% and the Z score is on record as -1.43.
The like results for `CCOCC(=O)NC[C@H](OC)c1ccc(C)s1` were, in that order, 10% and -1.27.
The like results for `CC(C)S(=O)(=O)CC(=O)N1[C@@H](C)CCC[C@H]1C(=O)OC(C)(C)C` were, in that order, 8% and -0.87.
Consider `CN1C[C@H]2CC[C@@H](C1)N(C(=O)c1ccc(C(=O)N3CCOCC3)cc1)C2`, for which the “% Inhibition” value is recorded as -6% and the Z score was 1.15.
The like results for `CCc1nc(CNc2nc(C)ncc2CC)cs1` were, in that order, -7% and 1.19.
The like results for `C=CCNc1ncc(C2(c3ccccc3)CCCC2)s1` were, in that order, -1% and 0.21.
The like results for `Cc1cc(C)c(S(=O)(=O)CCC#N)c(C)c1` were, in that order, -2% and 0.29.
As to `COC(=O)c1cn(C2CCCCC2NS(=O)(=O)c2ccc3c(c2)CCCC3)nn1` (stereo unspecified), the “% Inhibition” value is given as -4% and the Z score is 0.83.
The like results for `N#Cc1cc(N2CC[C@@](O)(C(N)=O)C2)ccn1` were, in that order, -12% and 1.53.
The like results for `C[C@@H](O)[C@@H]1NC(=O)[C@@H](Cc2c[nH]c3ccccc23)NC1=O` were, in that order, 5% and -1.07.
The like results for `CC(C)N(C)Cc1ccc(CNC(=O)c2cccc3c2O[C@@H](C)C(=O)N3)cc1` were, in that order, 4% and -0.42.
For the compound `Cc1cccc(N2CCN(C(=O)c3cc(-c4ccccc4)[nH]c3C)CC2)c1C`, the “% Inhibition” value amounted to 8% and the Z score is on record as -1.05.
For `O=C(CCc1cccc(Br)c1)Nc1cccnn1`, the “% Inhibition” value is reported as -13% and the Z score is on record as 1.06.
The like results for `CNCc1cc(-c2ccc3[nH]ccc3c2)ccc1OC` were, in that order, 4% and -0.49.
The like results for `O=C(NCc1ccccn1)C1=NN(c2ccc(Cl)cc2)c2ncccc2S1(=O)=O` were, in that order, -10% and 1.25.
The like results for `O=C(c1cc(Br)cc(Br)c1O)c1nn[nH]c1C(F)(F)F` were, in that order, 5% and -0.62.
Consider `c1ccc(CO[C@H]2COCC[C@@H]2Nc2ncnc3[nH]cnc23)nc1`, for which the “% Inhibition” value was -12% and the Z score is 2.41.
The like results for `c1cnc(N[C@H]2CCN(Cc3cc4n(n3)CCC4)C2)nc1` were, in that order, 5% and -0.88.
The like results for `CCOC(=O)c1ccc(NC(=O)Cc2cncn2C)c(NC(C)C)c1` were, in that order, -6% and 0.84.
The like results for `O=C(NCc1csc(N2CCOCC2)n1)c1cnccn1` were, in that order, -11% and 1.79.
Consider `Cc1ncc2c(c1-c1noc(CN3CCCCCC3=O)n1)CCNC2`, for which the “% Inhibition” value is given as -3% and the Z score is recorded as 0.63.
The like results for `O=C(NC1(c2c(F)cccc2F)COC1)c1cnn2c1OCCC2` were, in that order, 8% and -0.95.
As to `CC(C)n1cc(CNCc2nc(N(C)C)no2)cn1`, the “% Inhibition” value is given as -6% and the Z score is recorded as 1.15.
Turning to `CC(C)C[C@H](NC(=O)c1ccnn1C(C)C)C(N)=O`, the “% Inhibition” value worked out at 11% and the Z score is reported as -1.48.
The like results for `COc1cc(OC)cc(N(C)C(=O)c2cscn2)c1` were, in that order, 15% and -1.47.
The like results for `CC(C)C(=O)NCCC(=O)Nc1ccc(F)cc1` were, in that order, -4% and 0.53.
The like results for `CC(C)CNS(=O)(=O)c1cc(-c2nc(C(C)(C)C)cs2)cs1` were, in that order, 1% and -0.17.
As for `C[C@H](Oc1ccccc1Br)c1nc(-c2nonc2N)no1`, the “% Inhibition” value is -31% and the Z score was 3.69.
With `CN(C)c1ccc(C(=O)N2CCc3c2cccc3C(F)(F)F)cn1`, the “% Inhibition” value was -6% and the Z score came to 0.97.
The like results for `CCC[C@H](C)NC(=O)C1CCN(S(=O)(=O)c2ccc3c(c2)CCC3)CC1` were, in that order, -7% and 1.33.
The like results for `C#CCCCC(=O)N1CC2(CCN(C(=O)OC(C)(C)C)CC2)C[C@@H]1C` were, in that order, -8% and 1.18.
The like results for `COc1ccc(C[C@H]2CCOC3(CCN(C(=O)c4cccc(C#N)c4)CC3)C2)cc1` were, in that order, -19% and 2.41.
Consider `CCc1ccc(CN2CCC(CNC(=O)c3ccncc3)CC2)nc1`, for which the “% Inhibition” value came to 2% and the Z score is -0.26.
`C[C@@H](c1ccc2c(c1)CCC2)n1cc(C(=O)N(C)C)nn1`: the “% Inhibition” value was 0% and the Z score came to 0.02.
The like results for `COCCn1nnc2c1CCN(C(=O)c1cnn(Cc3ccc(OC)cc3)c1)C2` were, in that order, -7% and 1.58.
As to `CCc1ccc(-c2cc(C(=O)N3CCN(c4ncccn4)CC3)c3ccccc3n2)s1`, the “% Inhibition” value was -6% and the Z score came to 1.2.
The like results for `Cc1ncn(C)c1C(=O)NCCCOc1cccnc1` were, in that order, 3% and -0.5.
As for `O=C(NCCc1ccccn1)N1CCC[C@H]1c1ccc2c(c1)OCCO2`, the “% Inhibition” value was found to be 3% and the Z score is -0.4.
Regarding `Cc1cc(N2CCC(NC(=O)c3cnn(C)c3)CC2)c(C#N)c(C)n1`, the “% Inhibition” value was -2% and the Z score was found to be 0.29.
The like results for `CN(C)C(=O)c1ccc(-c2ccc(C(=O)N3CCc4n[nH]cc4C3)cc2)o1` were, in that order, -15% and 2.32.
Consider `Cn1c(C(F)(F)F)nn(C2CCN(S(=O)(=O)c3ccc4c(c3)CCO4)CC2)c1=O`, for which the “% Inhibition” value is -11% and the Z score is recorded as 1.2.
On to `CCc1ccc(CS(=O)(=O)NC(=O)c2cn3ccnc3s2)cc1`, for which the “% Inhibition” value was 39% and the Z score is -5.57.

These data come from ChEMBL document CHEMBL4888484, “Replenishing the malaria drug discovery pipeline: Screening and hit evaluation of the MMV Hit Generation Library 1 (HGL1) against asexual blood stage Plasmodium falciparum ,using a nano luciferase reporter read-out” (2022).
